In the antibiotic and cytotoxicity screens of Wong et al. (2023):
The other results are listed elsewhere or left out.

Each compound was assayed on HSkMC (human skeletal muscle cells) (assay: cytotoxicity call (relative viability < 0.9)). Conditions: 10 µM.

**Q.** How did the cytotoxicity call turn out when `CNC(=O)c1ccc(Nc2ncc(C(F)(F)F)c(NCc3nccnc3N(C)S(C)(=O)=O)n2)cc1` was run?
**A.** active

**Q.** `C=CCOC(=O)[C@H]1[C@@H]2C(=O)O[C@@H](c3ccccc3)[C@@H](c3ccccc3)N2[C@@H](c2ccc(OCCOC(=O)[C@H]3C[C@H]4C(=O)N5CCC[C@H]5C(=O)N4[C@H]3c3cccc(OCCO)c3)cc2)[C@]12C(=O)Nc1ccccc12` was tested. Which cytotoxicity call did it give?
**A.** inactive

**Q.** Which cytotoxicity call does the source give for `Cc1noc(C)c1NC(=O)Nc1cccc2c1O[C@H](CN(C)Cc1ccc(C(=O)Nc3ccccc3N)cc1)[C@@H](C)CN([C@@H](C)CO)C2=O` here?
**A.** inactive

**Q.** With `N[C@H]1CC[C@H](CCn2cc(C3CC3)nn2)O[C@@H]1CO` as the compound, how does the cytotoxicity call read?
**A.** inactive

**Q.** For `C[C@H]1CN([C@@H](C)CO)C(=O)Cc2cc(NC(=O)Cn3cnnn3)ccc2O[C@H]1CN(C)CC1CCCCC1`, which cytotoxicity call is on record?
**A.** inactive

**Q.** Which cytotoxicity call does the source give for `COc1ccc(NC(=O)Nc2ccc3c(c2)CC(=O)N([C@@H](C)CO)C[C@@H](C)[C@@H](CN(C)C(=O)Nc2cccc4ccccc24)O3)cc1` here?
**A.** inactive

**Q.** With `C[C@H]1CN([C@@H](C)CO)C(=O)c2cc(C#Cc3ccccc3F)cnc2O[C@H]1CN(C)C(=O)c1ccc2c(c1)OCO2` as the compound, how does the cytotoxicity call read?
**A.** inactive

**Q.** `N[C@@H](Cc1ccc(Cl)cc1)C(=O)O` was tested. Which cytotoxicity call did it give?
**A.** inactive

**Q.** With `O=C(C[C@H]1CC[C@H]2[C@@H](COC[C@@H](O)CN2Cc2ccccc2F)O1)N[C@H]1CCN(Cc2ccccc2)C1` as the compound, how does the cytotoxicity call read?
**A.** inactive

**Q.** `CN(C)CCCCNC(=O)[C@H]1C[C@H]2C(=O)NCC(=O)N2[C@H]1c1cccc(OCCO)c1` was tested. Which cytotoxicity call did it give?
**A.** inactive

**Q.** Which cytotoxicity call does the source give for `COc1ccc2c3c([nH]c2c1)[C@H](CO)N(C[C@]13CCN(CC1)C(=O)c1cnccn1)C(=O)c1cnccn1` here?
**A.** inactive
